# Laboratory results taken from paper PMC5540273 (PLoS ONE, 2017).
# This is a selection; strong and weak results do not stand in their true shares. This is one part of the list.
# What was measured:
# IKK-alpha = test system: T1, IKK-alpha
# T1 construct: gene CHUK
# MST2 = test system: T2, MST2
# T2 construct: gene STK3
# [1] = test system: JAK3(JH1domain-catalytic)
# LKB1 = test system: T3, LKB1
# T3 construct: gene STK11
# GCN2(Kin.Dom.2,S808G) = test system: T4, GCN2(Kin.Dom.2,S808G)
# T4 construct: gene EIF2AK4
# [2] = test system: JAK1(JH1domain-catalytic)
# 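Also: kd values determined as follow-up on hits from a single-replicate KINOMEscan panel screen.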
compound,measurement,setting,value
O=C1NC(=O)C(c2ccccc2Cl)=C1Nc1cccc(C(=O)O)c1 [SB-390526],Kd,HIPK1,0.21 µM
same,Kd,HIPK2,0.14 µM
same,Kd,HIPK3,0.34 µM
same,Kd,IKK-alpha,> 10 µM
same,Kd,MST2,> 10 µM
O=C1NC(=O)C(c2ccccc2)=C1Nc1cc(Cl)c(O)c(Cl)c1 [SB-390530],Kd,[1],0.38 µM
O=C1NC(=O)C(c2ccccc2Cl)=C1Nc1ccccc1 [SB-376715],Kd,LKB1,> 10 µM
COc1ccc(C2=C(Nc3cccc(Cl)c3)C(=O)NC2=O)cc1 [SB-326892],Kd,"GCN2(Kin.Dom.2,S808G)",> 10 µM
same,Kd,GSK3A,0.44 µM
same,Kd,[2],> 10 µM
Cc1cc(C)cc(Oc2nccc(-c3c(-c4ccc(F)cc4)ncn3C3CCNCC3)n2)c1.O=C(O)C(F)(F)F.O=C(O)C(F)(F)F.O=C(O)C(F)(F)F [SB-284851],Kd,[2],> 10 µM
